Experimental data reported in the RNAGym collection of RNA variant scans (doi:10.1073/pnas.2313332121).
Variants at the floor of the assay are shown more often than the library holds them.

B1: TPR 5TU (parent)
chain: GGAUCUUCUCGAUCUAACAAAAAAGACAAAUCUGCCACAAAGCUUGAGAGCAUCUUCGGAUGCAGAGGCGGCAGCCUUCGGUGGCGCGAUAGCGCCAACGUUCUCAACUAUGACACGCAAAACGCGUGCUCCGUUGAAUGGAGUUUAUCAUG

Variants of: B1
Assay: polymerase ribozyme fitness, log enrichment relative to wild type (log ratio); higher = more active; in vitro selection for triplet polymerase activity
Method in brief: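 A single round of triplicate in vitro selection, including frozen incubation at −7 °C, was applied to PCR-built, transcribed mutant libraries of each subunit of a heterodimeric triplet polymerase ribozyme. Illumina sequencing of input and output libraries retained genotypes with ≥10 input reads and ≥1 read per output. Fitness is the base-2 logarithm of genotype enrichment divided by wild-type enrichment, from inverse-variance-weighted replicate averages.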

| Variant | polymerase ribozyme fitness (log ratio) |
| --- | --- |
| GGAUCUUCUCGAUCUAACAAAAAAGACAAAUCUGCCACACAGCUUGAGAGCAUCUGCGGAUGCAGAGGCGACAGCCUUCGGUGGCGGGAUAGCGCCAACGUUCUCCACUAUGACACGCAAAACGCGUGCGCCGUUGAAUGGAGUUUAUCAUG | ≤ -4.2 |
| GGAUCUUCUCGAUCUAACAAAAAAGACAAAUCUGCCACAGGGCUUGAGAGCAUCUUCGCAUGCAGAGGCGGCAGCCUUCGGUGGCGCGAUACCGCCAACGUUCUCAACUAUGACAGGCAAAACGCGUGCUGCGUUGAAUGGAGUUUAUCAUG | ≤ -4.2 |
| GGAUCUUCUCGAUCUAACAAAAAAGACAAAUCUGCCACACAGCUUGAGACCAUCUACGGAUGCAGAGGCGGCAGCCUUCGGUGGCGCGAUCGCGCCAACGUUCUCAACUAUGACACGCAAAACGCGUGCUCCGUUGAAUGGAGUUUAUCAUG | ≤ -4.2 |
| GGAUCUUCUCGAUCUAACAAAAAAGACAAAUCUGCCACACAGCUUGAGAGCAUCUUCCGAUGCAGAGGCGGCAGCCUUCGGUGGCGCGAUAGCGCCAACGCUCUCAACUAUGACAUGCAAAAGGCGUGCUCCGUUGAGUGGAGUUUAUGAUG | ≤ -4.2 |
| GGAUCUUCUCGAUCUAACAAAAAAGACAAAUCUGCCACACAGCUUGAGAGCAUCUUCGGAGGCAGAGGCGGCAGCCUUCGGUGGCGGGAUAGAGCCAACGUUCUCAACUAUGACACGCAAAACGCGUGCUCCGUUGAAUGGACUUUAUCAUG | ≤ -4.2 |
| GGAUCUUCUCGAUCUAACAAAAAAGACAAAUCUGCCACAGAGCUUGCGAGCAUCUUCGGAUGCAGAGGCGGCAGCCUUCGGCGGCACGAUAACGCCAACGUUCUCAACUAUGACACGCAAUACGCGUGCUCUGUUGAAUGGAGUUUAUCAUG | ≤ -4.2 |
| GGAUCUUCUCGAUCUAACAAAAAAGACAAAUCUGCCACACAGCUUGAGAGCAUCUUCGGAUGCAGAGGCGGCAGCCUUCGGUGGCGCGAUACCGCCAACGUUCUCAACUAUGACACGCAGCACGCGUGCUCCGUUGAAUGGAGUUUAUCAUA | ≤ -4.2 |
| GGAUCUUCUCGAUCUAACAAAAAAGACAAAUCUGCCACACAGCUUGAGAGCAUCUUCGAAUGCAGAGGCGGCAGCCGUCGGUGGCGCGAUAGGGCCAACGUUCUCAACUAUGACACGCAAAACGCGUGCUCCGUUGCAUGGAGUUUAGCAUG | ≤ -4.2 |
| GGAUCUUCUCGAUCUAACAAAAAAGACAAAUCUGCCACACAGCAUGAGAUCAUGUUCGGAUGCAGAGGCGGCAGCCUUCGCUGGCGCGAUAGCGCCAACGUUCUCAACUAUGACACGCAAAACGCGUGCUCCGUUGAAUGGAGUUUAUAAUG | ≤ -4.2 |
| GGAUCUUCUCGAUCUAACAAAAAAGACAAAUCUGCCACACAGCUUUAGAGCAUCUUCGGAUGCAGAGGCGGCAGCCUUCGGUGGCGCGAUAGCGCCAACGUUCUCAACUAUGACACGCAAAACGCGUGCUCCGUUGAAUGGAGUUUAGCAUG | ≤ -4.2 |
| GGAUCUUCUCGAUCUAACAAAAAAGACAAAUCUGCCACACAGCUUGAGAGCAUCUUCGGAUGCAGAGGCGGCAGCCUACGGUGGCACGAUAGCGCCAACGUUCUCAACUAUGACACGCAAAACGCGUGCUCCGUUGAAUGGAGUUUAUCAUG | ≤ -4.2 |
| GGAUCUUCUCGAUCUAACAAAAAAGACAAAUCUGCCACAGUGCUUGAGAGCAACUUCGGAUGCAGAGGCGGCAGCCUUCGGUGGCGCGAUAGCGCCAACGUUCUCAACUAUGACACGCAAAAAGUGUGCUCCGGUGAAUGGAGUUUAUCAUG | -3.73 |
| GGAUCUUCUCGAUCUAACAAAAAAGACAAAUCUGCCACACAGCUUGAGAGCAUCUGCGGAUGCAGAGGCGGCAACCUUCGGUGGCGCUAUAGCGCCAACGUUCUCAACUAUGACACGCAAAACGCGUGCUCCGUUGAAUGGAGUUUAUCAUG | ≤ -4.2 |
| GGAUCUUCUCGAUCUAACAAAAAAGACAAAUCUGCCACACAGCUUGAGAGCAUCUUCGGAUGCAGAGGCGGCAGCCUUCGGUGGCGCGAGUGCGCCAACGUUCUCAACUUUGACACGCAAAACGCGUGCUCCGUUGAAUGGGGUUUAUCAUG | ≤ -4.2 |
| GGAUCUUCUCGAUCUAACAAAAAAGACAAAUCUGCCACACAGCUUGAGAGCAUCUUCGGAAGCAGAGGCGGCAGCCUUCGGUGGCGCGAUGGCGCCUACGUUCUCAACUAUGACACGCAAAACGCGUGCUCCGUUGAAUGUAGUUUAUCAUG | ≤ -4.2 |
| GGAUCUUCUCGAUCUAACAAAAAAGACAAAUCUGCCACACAGCUAGAGAGCAUCUUCGGAUGCAGAGGCGGCAGCCUUCGGUGCCCUGAUAGCGCCAACGUUCUCAACUAUGACACGCAAAGCGCGUGCUCCGUUGAAUGGAGUUUAUCAUG | ≤ -4.2 |
| GGAUCUUCUCGAUCUAACAAAAAAGACAAAUCUGCCACACAGCUUGAGAGCAUCUACGUAUGCAGAGGCGGCAGCCUUCGGUGGCGCGAUAGCGCCAACGUUCUCACCUAUGACACGCAAAACGCGUGCUCCAUUGAAUGGAGUUUAGCAUG | ≤ -4.2 |
| GGAUCUUCUCGAUCUAACAAAAAAGACAAAUCUGCCACACAGCGUGAGAGCAUCUUCGGAUGCAGAGGCGGCAGCCUGCGGUGGCGCGAGAGCGCCAACGUUCUCAACUAUGACACGCAAAACGCGUGCUCCGUUGAAUGGAGUUUAUCAUG | ≤ -4.2 |
| GGAUCUUCUCGAUCUAACAAAAAAGACAAAUCUGCCACACAGCUUGAGAGCAUCUUCGGAAGCAGAGGCGGCAGCGUUCGGUGGCGCGAUAGCGCCAACGUUCUCAACGAUGACACGCAAAACGCGUGCACCGUUGAAUGGAGUUUAUCAUG | ≤ -4.2 |
